# Test results taken from PubChem BioAssay (NCATS).
# The inconclusive results got no clear call from the source; some entries with a clear call stand among them for comparison. Potencies of inconclusive entries are left out as doubtful fits. The source made the active and inactive calls. Calls follow the shape of the dose curve; as a rule, active = well fitted inhibition curve with a large enough effect; inconclusive = small, poorly fitted or top-dose-only effect; inactive = no such curve, though single readings can be large or run the other way.
# Experiment: Primary qHTS for small molecule stabilizers of the endoplasmic reticulum resident proteome: Secreted ER Calcium Modulated Protein (SERCaMP) assay (AID 1508630)
# Settings: SH-SY5Y GLuc-SERCaMP (Gaussia luciferase released on ER calcium loss) secretion, thapsigargin, luminescence; activity change, negative = inhibition: at 38.4 µM (top of the series)
# Source text: Assay Provider: Brandon K. Harvey Ph.D.
# National Institute on Drug Abuse, National Institutes of Health, Baltimore, MD
# Endoplasmic reticulum (ER) dysregulation is associated with human pathologies including neurodegenerative, cardiovascular, muscular, and diabetic conditions. Maintenance of ER calcium is critical for functions of the ER and its depletion can lead to loss of ER resident proteins, in a process termed exodosis. Therapeutic compounds capable of attenuating the redistribution of ER proteins under pathological conditions may slow or stop disease progression. To identify such compounds, we performed a quantitative high-throughput screen (qHTS) using the SERCaMP assay, which monitors secretion of ER resident proteins triggered by calcium depletion.
# SERCaMP was initially developed as a reporter of ER calcium homeostasis using a Gaussia luciferase with a modified signal peptide and carboxy-terminus (GLuc-SERCaMP), modifications that confer secretion of the reporter in response to ER calcium depletion (Henderson et al., 2014). The assay was used to screen 9,501 compounds, including a collection of drugs approved by the FDA (US), EMA (EU), NHI (Japan), and HC (Canada) regulatory agencies (Huang et al., 2011). Since the SERCaMP reporter reflects the exodosis phenomenon (Trychta et al., 2018a), compounds identified in the screen have the potential to prevent exodosis by different mechanisms such as stabilizing ER calcium or augmenting ERS retrieval.
# 1. Henderson, M.J., Wires, E.S., Trychta, K.A., Richie, C.T., and Harvey, B.K. (2014). SERCaMP: a carboxy-terminal protein modification that enables monitoring of ER calcium homeostasis. Mol Biol Cell 25, 2828-2839.
# 2. Huang, R., Southall, N., Wang, Y., Yasgar, A., Shinn, P., Jadhav, A., Nguyen, D.T., and Austin, C.P. (2011). The NCGC pharmaceutical collection: a comprehensive resource of clinically approved drugs enabling repurposing and chemical genomics. Sci Transl Med 3, 80ps16.
# 3. Trychta, K.A., Back, S., Henderson, M.J., and Harvey, B.K. (2018a). KDEL Receptors Are Differentially Regulated to Maintain the ER Proteome under Calcium Deficiency. Cell Rep 25, 1829-1840 e1826.
# SEQUENCE No. (1, 2, 3, etc.); […] (e.g., Cells, Incubation, Reagent, etc.); VALUE and DESCRIPTION.
# 1; Reagent; 5 uL; 1000 SH-SY5Y cells per wells
# 3; Compound; 23 nL; Control inhibitor / compound library
# 5; Reagent; 100 nM; Thapsigargin
# 7; Reagent; 1 uL; 0.5x coelenterazine
# 8; Detection; Luminescence; ViewLux imaging system
# NOTES (numbers refer to sequence above)
# 1; SH-SY5Y human neuroblastoma cells stably expressing GLuc-SERCaMP (SH-SY5Y-GLuc-ASARTDL) cells were seeded in 1,536 well white tissue culture treated plates (Corning, Cat# 7464) in DMEM-high glucose-sodium pyruvate (ThermoFisher Scientific, Cat #10569) supplemented with 10% bovine growth serum (Hyclone), 10 U/ml penicillin (Gibco), 10 ug/ml streptomycin (Gibco), and 20 mM HEPES.
# 2; Assay plates were incubated for 5 hour at 37C in a humidified incubator containing 5% CO2.
# 3; qHTS libraries (23 nl, final concentrations of 1.53 uM, 7.67 uM, 38.3 uM) or controls (neutral control: DMSO, positive control: dantrolene) were added using a Kalypsis pin-tool Robotic System equipped with 1536 pinheads.
# 4; Cells were then incubated for 16 hours at 37C, 5% CO2.
# 5; Thapsigargin was added at 100 nM to deplete ER calcium stores.
# 6; Cells were incubated for 4 hour (37 °C, 5% CO2)
# 7; Gaussia luciferase in the medium was measured by adding 1 ul of 0.5x coelenterazine (final concentration 0.07x) prepared in Gaussia Luciferase Glow Assay Buffer (Pierce), without addition of the Cell Lysis Buffer Reagent.
# 8; Luminescence was measured using a ViewLux […] CCD imaging system (Perkin Elmer) equipped with clear filters. […] The same controls were also used for the calculation of the Z' factor, a measure of assay quality control, as previously described (Zhang et al., 1999). […]
# % is scaled to controls: 0 for no effect and ±100 for the full control effect; potency is read from the fitted curve at half-maximal effect; tags tell the direction and shape of the fitted curve.
Compound,Potency,"activity change, negative = inhibition"
CN1CCC(N(Cc2ccccc2)c2ccccc2)CC1,"inconclusive [inhibitor, single point]",
C=C(C)[C@H]1Cc2c(ccc3c2O[C@@H]2COc4cc(OC)c(OC)cc4[C@@H]2C3=O)O1,inactive,
O=C1CC[C@@]2(O)[C@H]3Cc4ccc(O)c5c4[C@@]2(CCN3CC2CC2)[C@H]1O5,"inconclusive [inhibitor, partial curve, poor fit]",
C#CCOC(C(=O)OCCN(C)C)(c1ccccc1)c1ccccc1,,inactive: -27.4%
C[C@]12C/C(=C/O)C(=O)C[C@@H]1CC[C@@H]1[C@@H]2CC[C@@]2(C)[C@H]1CC[C@]2(C)O,"inconclusive [inhibitor, partial curve, poor fit]",
COc1ccc2c3c1O[C@H]1[C@H](O)CC[C@H]4[C@@H](C2)N(C)CC[C@@]341,"inconclusive [inhibitor, single point]",
c1cc2ccc3cccc4ccc(c1)c2c34,"inconclusive [inhibitor, single point]",
CCC(=O)C(CC(C)N(C)C)(c1ccccc1)c1ccccc1 (stereo not given),"inconclusive [inhibitor, partial curve, poor fit]",
CCOC(C(=O)OCCN(C)C)(c1ccccc1)c1ccccc1,"inconclusive [inhibitor, single point]",
CCC1(c2ccccc2)CCC(=O)NC1=O (stereo not given),"inconclusive [inhibitor, full curve, poor fit]",
Cc1ccc(Cl)c(O)c1,"inconclusive [inhibitor, partial curve, poor fit]",
c1ccc2nc(N3CCNCC3)ccc2c1,"inconclusive [inhibitor, single point]",
Cc1c(Cl)c(=O)oc2cc(OP(=O)(OCCCl)OCCCl)ccc12,"inconclusive [inhibitor, partial curve, poor fit]",
CC(C)C[C@H](CN)CC(=O)O,"inconclusive [inhibitor, single point]",
O=c1oc2ccccc2c(O)c1Cc1c(O)c2ccccc2oc1=O,"inconclusive [inhibitor, partial curve, poor fit]",
CCCC1CCCCN1 (stereo not given),"inconclusive [inhibitor, single point]",
CC(=O)[C@H]1CC[C@H]2[C@@H]3CC[C@H]4C[C@](C)(O)CC[C@]4(C)[C@H]3CC[C@]12C,"inconclusive [inhibitor, partial curve, poor fit]",
NC(=O)OCCCc1ccccc1,"inconclusive [inhibitor, partial curve, poor fit]",
CNCC(=O)c1ccc(O)c(O)c1,"inconclusive [inhibitor, partial curve, poor fit]",
O=C(O)c1ccc(=O)[nH]c1,"inconclusive [inhibitor, partial curve, poor fit]",

Compound,Potency,"activity change, negative = inhibition"
C=C1C[C@@H]2[C@H](CC[C@]3(C)C(=O)CC[C@@H]23)[C@@]2(C)C=CC(=O)C=C12,"inconclusive [inhibitor, single point]",
CCC(=O)C(CCN(C)C)(c1ccccc1)c1ccccc1,"inconclusive [inhibitor, single point]",
C[C@]12CC[C@H]3[C@@H](CC[C@@]45O[C@H]4C(O)=C(C#N)C[C@]35C)[C@H]1CC[C@H]2O,"inconclusive [inhibitor, partial curve, poor fit]",
NNc1ccccc1,"inconclusive [inhibitor, partial curve, poor fit]",
CCCCCCC(=O)CCCCCC/C=C/C[C@@H](O)[C@H](O)[C@@](N)(CO)C(=O)O,,inactive: 5.65% [at 21.6 µM]
CCOC(=O)c1cncn1[C@H](C)c1ccccc1,"inconclusive [inhibitor, partial curve, poor fit]",
O=c1[nH]c2ccccc2n1C1CCN(Cc2ccc(-c3[nH]c4cc5ncnc5cc4nc3-c3ccccc3)cc2)CC1,"inconclusive [inhibitor, full curve]",
CCOP(=S)(OCC)Oc1ccc2c(C)c(Cl)c(=O)oc2c1,"inconclusive [inhibitor, partial curve]",
CCOC(=O)C1(c2ccccc2)CCN(CCC(C#N)(c2ccccc2)c2ccccc2)CC1,"inconclusive [inhibitor, single point]",
CCN[C@@H](C)Cc1cccc(C(F)(F)F)c1,,inactive: -0.593%
Oc1ccc2c3c1O[C@H]1c4[nH]c5c(c4C[C@@]4(O)[C@@H](C2)N(CC2CC2)CC[C@]314)C[C@@]1(O)[C@H]2Cc3ccc(O)c4c3[C@@]1(CCN2CC1CC1)[C@H]5O4,inactive,
CN1C(=S)CN=C(c2ccccc2)c2cc(Cl)ccc21,,inactive: 19.7%
C=CCC1([C@H](C)CCC)C(=O)NC(=O)NC1=O,"inconclusive [inhibitor, single point]",
CCNc1nc(Cl)nc(NCC)n1,,inactive: -19.9%
ClCCCN1CCN(c2cccc(Cl)c2)CC1,,inactive: 36.2%
O=C(N[C@H]1N=C(c2ccccc2F)c2cccc3c2N(CC3)C1=O)c1cc2ccccc2[nH]1,"inconclusive [inhibitor, single point]",
CC(=O)C1CCOC1=O (stereo not given),"inconclusive [inhibitor, partial curve, poor fit]",
CC(=O)OCC1=C(C(=O)O)N2C(=O)[C@@H](N)[C@@H]2SC1,,inactive: 166%
CCN(CC)C(C)C(=O)c1ccccc1 (stereo not given),"inconclusive [inhibitor, full curve, poor fit]",
FC(F)(F)c1cccc(C2=CCN(CCc3ccc4ccccc4c3)CC2)c1,inactive,
